# Assay results as given in PubChem BioAssay AID624417 (National Center for Advancing Translational Sciences (NCATS), 2012).
# The whole screen tested about 410,000 compounds, of which about 6,400 (1.6%) were called active. This list was built around the results that the source calls inconclusive (neither active nor inactive); the mix of calls is not that of the screen. Calls follow the shape of the dose curve; as a rule, active = well fitted inhibition curve with a large enough effect; inconclusive = small, poorly fitted or top-dose-only effect; inactive = no such curve, though single readings can be large or run the other way. Potencies of inconclusive entries are left out as doubtful fits.
# Target: Glucagon-like peptide 1 receptor (Homo sapiens) (UniProt P43220)
# Assay: qHTS of GLP-1 Receptor Inverse Agonists (Inhibition Mode); also: nearly all actives have a fitted effect of over 55% in size
# Settings: HEK293 GLP-1R CRE-luciferase, luminescence, 24 h, GLP-1R form is constitutively active; series mostly up to 38.3 µM
# In short: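 HEK293 cells stably co-expressing constitutively active GLP-1R and a cAMP-responsive luciferase reporter were seeded in DMEM with 10% Nu serum, given compounds after 12 h, and incubated 24 h at 37 deg C. Luminescence was then read.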
# Potency is read from the fitted curve at half-maximal effect; tags tell the direction and shape of the fitted curve.
# Sequence of UniProt P43220 (P43220 whole entry, looked up): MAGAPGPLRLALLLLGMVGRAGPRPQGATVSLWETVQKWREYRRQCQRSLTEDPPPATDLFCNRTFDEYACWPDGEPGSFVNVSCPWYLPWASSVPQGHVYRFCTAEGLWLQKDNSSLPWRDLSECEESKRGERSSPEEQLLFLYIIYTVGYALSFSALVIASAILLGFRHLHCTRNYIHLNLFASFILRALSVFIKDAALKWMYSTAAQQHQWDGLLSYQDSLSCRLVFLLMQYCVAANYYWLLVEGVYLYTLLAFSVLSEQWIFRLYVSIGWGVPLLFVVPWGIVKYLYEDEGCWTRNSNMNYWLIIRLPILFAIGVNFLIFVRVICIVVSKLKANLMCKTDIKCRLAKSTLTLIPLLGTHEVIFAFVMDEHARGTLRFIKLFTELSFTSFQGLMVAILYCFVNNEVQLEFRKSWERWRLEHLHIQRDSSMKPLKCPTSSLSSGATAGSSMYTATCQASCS
row,Structure (SMILES),Potency
1,CC(C)C[C@H]1CN([C@@H](Cc2ccccc2)CN2CCC[C@@H]2CN2C(=O)C(=O)NC[C@@H]2Cc2ccc(O)cc2)C(=O)C(=O)N1CCc1ccccc1,inactive
2,Cc1ccc(NS(=O)(=O)c2ccc3[nH]c4c(c3c2)CCCC4)c(C)c1,"inconclusive [inhibitor, single point]"
3,COc1ccc(-c2nc3c4ccccc4ccn3c2CC2CCCCC2)cc1OC,inactive
4,CN(C)Cc1ccccc1Sc1cccc2ccccc12,"inconclusive [inhibitor, single point]"
5,Cc1ccc(-c2nc3ccccn3c2Nc2c(C)cccc2C)o1,"inconclusive [inhibitor, single point]"
6,CCc1nc2c(OCc3ccc(Cl)cc3Cl)cccn2c1N(C)C(=O)C1CC1,"inconclusive [inhibitor, partial curve, poor fit]"
7,CC1CCc2c(sc3nnn(Cc4ccccc4)c(=O)c23)C1 (stereo not given),"inconclusive [inhibitor, single point]"
8,COc1ccc(C(=O)COC(=O)C(CCSC)NS(=O)(=O)c2ccc(Cl)cc2)cc1 (stereo not given),"inconclusive [inhibitor, single point]"
9,COC(=O)[C@@]12OC[C@]34[C@H]([C@@H](O)[C@@H]1O)[C@@]1(C)C(=O)C(O[C@@H]5OC(CO)[C@@H](O)[C@@H](O)[C@@H]5O)=C[C@@H](C)[C@@H]1C[C@H]3OC(=O)[C@H](OC(=O)/C=C(\C)C(C)(C)OC(C)=O)[C@@H]24 (stereo not given in full),"inconclusive [inhibitor, single point]"
10,CCCCCc1cc(=O)oc2c(C(CCN(CC)CC)c3ccc(N(C)C)cc3)c(OC)cc(OC)c12 (stereo not given),"inconclusive [inhibitor, partial curve, poor fit]"
11,c1ccc(Cc2c(-c3ccco3)nc3c4ccccc4ccn23)cc1,inactive
12,CCN(CC)S(=O)(=O)c1cc(NC(=O)C(C)Nc2ccccc2N2CCOCC2)ccc1C (stereo not given),"inconclusive [inhibitor, single point]"
13,O=C(c1ccccc1O)N1N=C(C(F)(F)F)CC1(O)c1ccc([N+](=O)[O-])cc1 (stereo not given),"inconclusive [inhibitor, full curve, poor fit]"
14,Cc1ccc(NC(=S)NCCN(C2CCCCC2)C2CCCC2)cc1C,"inconclusive [inhibitor, partial curve, poor fit]"
15,FC(F)(F)c1ccc(C2NCCc3sccc32)cc1 (stereo not given),"inconclusive [inhibitor, partial curve, poor fit]"
